The full ranking holds about 1,800 sequences; the median of “median log2 fold change of GCK-ALFA target abundance (FLAG IP / Myc IP barcode read proportion)” is about 0.14, and the lowest 2% start at about -0.84. This is one part of the list.
T1: TRAF2, Q12933
T1 chain: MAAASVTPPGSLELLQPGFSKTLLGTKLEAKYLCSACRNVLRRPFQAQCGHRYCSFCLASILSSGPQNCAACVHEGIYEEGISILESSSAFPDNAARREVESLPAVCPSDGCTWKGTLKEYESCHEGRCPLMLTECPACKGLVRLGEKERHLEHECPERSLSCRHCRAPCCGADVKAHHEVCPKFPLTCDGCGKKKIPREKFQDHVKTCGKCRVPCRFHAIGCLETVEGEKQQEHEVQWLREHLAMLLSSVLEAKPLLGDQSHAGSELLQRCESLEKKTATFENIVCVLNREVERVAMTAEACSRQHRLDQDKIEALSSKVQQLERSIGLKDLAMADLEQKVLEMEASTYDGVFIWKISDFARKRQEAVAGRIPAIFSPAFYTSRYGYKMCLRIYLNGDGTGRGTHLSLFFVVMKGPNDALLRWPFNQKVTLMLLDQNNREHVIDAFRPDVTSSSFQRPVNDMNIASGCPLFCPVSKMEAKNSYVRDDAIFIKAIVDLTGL

B1: traf2_out_17_162_1494 (protein)
chain: AELEKELKELEKKLKELEKKLKELEEKLKNLEKLSKEEITDLLVEASELKREALELAERLKRLAKETGDPRLKELIEKAEKLAEKAQKIANKIYKELEKK
B2: traf2_out_16_104_1382 (protein)
chain: SAAKEKEFKAIIARLEAIADEANRLANELYELMKTASPEKRKKLSDALVKVSELRREALEAAEKAREALKTGGDLEEARKKLKELEKKLKELKKEVEELK
B3: traf2_out_17_162_1613 (protein)
chain: SELEEKLEELKKKLKELKEKLKELEEKLKNIKELSKEELTDLLVEASEARREALEALEEIKELKDKLDPELYEKLSKEYEELAEKFQEIANKFYKELEKK
B4: traf2_out_16_177_1454 (protein)
chain: ELSKLMDRLVILSEIRRAALEIVESDSPLADEHLARAREEAEEAGDEEGLERIEEIEELRAKNTPEALEKLRELAREAGREAQRLADEAEALIAARAAAE
B5: traf2_out_17_60_1759 (protein)
chain: SAEEEDAALAAEAREAIAEARRLVEEVNAKIEAGTLTADEAMDYLVELTEKRRRLEALRDELEARGPAFAPLAAELAAAIEELRRTANKVGKLLEELLAK
B6: traf2_out_18_167_1863 (protein)
chain: MEELREKLEEATDKLVELSEIRRALLEALQLLEKSREEAKAYLKEKLEELPDSEILKEALEVLETKSDEEFKKFLEEKIEELQKKMNETYKEVEELRKKL
B7: traf2_out_17_35_1756 (protein)
chain: MTPTEKERKIASEIADKILEESDRLNARLDAIWEATGDPQAVVDATKAILDEYGIGEEEKAHLDAHAATATPEELLAVSHALIRRAVGEKYGKKYAELLK
B8: traf2_out_17_178_1659 (protein)
chain: NKEEARAEISAATDELIDLTEATADRLLAILEADGTASPEELAALREARRLGSATTTRALMEAAVPRSPRSAEVAALLDDFTKRSGELAKKIAEAYKKYE
B9: traf2_out_18_3_1929 (protein)
chain: KEEKLQEISDKIDEIIDETTAKAREWLDRLKKEHPEFKARADALLADLEAGAGPFGILDAIAELWREAGDEEEAEEVEKFREEKKKELEKLVEEYLELRK
B10: traf2_out_14_166_1278 (protein)
chain: MTEEEIERIREIVDKLEPLTEEAVKRAEEILEKNKSKLSPEDLKKVEELLEIARRNIGSTAINALEEIAKIYKKAGLEEAAKEMLKLAEELREKLKELNK
B11: traf2_out_11_79_934 (protein)
chain: EELREELLRLLEEALRKVEELIAALRAGTISPEERAALLDEIERLLQRAAELALKLGLSDVLVEISEAKRHVRLAYSGDLEALEEARRELEEAIRLLKEE
B12: traf2_out_20_38_2015 (protein)
chain: SEEEEEEKKEEELIKKAQEAYDEAEAWIAALQAAGKSVDEIAAAAKAEVRELLTKHGLEEEAEELIADIDRVRDSPDALRLIARILARARTLVFQKELQK
B13: traf2_out_6_156_2453 (protein)
chain: AAEAILERTEKEIEEGIKALAAAPEERKIAEINRIAGAFYRGLQALRAAGASLEELRAAAERLLETAEKKAKEAGLDERTRNLLLASLRAVADVALAAAA
B14: traf2_out_6_3_2523 (protein)
chain: SEESLREDARRVLEGMGITTAEQLRRLVRAEVNAVRRLVSRPDTDEADLAGAESVLALAEAVVDVAAEELPDLTEEQVAELRALIEEARKLVEEKRAELA
B15: traf2_out_11_169_862 (protein)
chain: KEEEFNRKLIDFALEVEDEAKKKLKEFALKLAKEAGLDVAEVEAIFEKHKNSSLSAIASALIEYFRSKGKEEEAEKILKKHDELKEEINKKVSEKIKELK
B16: traf2_out_17_178_1694 (protein)
chain: SKEELRKKISELTDKLIDLSDYYGTKLIELVKKEGVLTPEELKLLEEALKSGSNRTILETAEEIIPKSNASEETKKLLEEFKKEYKKISKEIAEAYEKYE
B17: traf2_out_9_17_2611 (protein)
chain: SAEEEELKERLLEAIEEVLKELVEKGYITEEEAEEILKKVKELIEKGASPDEIIAEFLGMIASILLTKSNLSLPEANKIVGEAYRRLQERLEKIEKELAE
B18: traf2_out_11_131_660 (protein)
chain: MDAVATARSAAERVDALLALAETLSPEERHRLALHALDTIEAVAEYLTSHVSTMTKEEVKEAARILREARDRVLALDPRVAPEAAEVEEAIKKLLEAAEE
B19: traf2_out_12_187_973 (protein)
chain: SVEEELIEAAREALRQALAALREAAPEDPRFQEFLERLERLAELLERDPSLAADAAVAASLILRAVRLKEAGLPQAEVDAAAAEAAAELAAVEAAARARE
B20: traf2_out_18_3_1948 (protein)
chain: KEEKRKELSEKLDEVFDDLADWLLARAEELVAEDPRFAPVLERLRALRAQGHLGSSLANTLIDGLLALGEEERAAEVEERYSEFAKKASAIIDEYEKLTS
B21: traf2_out_11_169_869 (protein)
chain: EEKEKNRKLNDFALELNDEAKEKLRDFALALAKEKGLDVEEVKAIFEKNKNKSLSAVASELIRYFKEKGKEEEAEKILKKHEELKEEINKKTSEKIKELE
B22: traf2_out_9_17_2614 (protein)
chain: SAAEEKLKKETLKAIEEVLKKLVEKGYITEEEAEEILKKVKELIEKGASVDEIIASFLGDVASILLTKSNLSLSEANKIVGEAYRELRKKREEIEKKLAA
B23: traf2_out_12_187_949 (protein)
chain: SVEEELLEAAKEALRQALRALEAAGPDDPRLRELRRLLEEAAEALEKDPSIASDLLVAASLALRAVRLLEAGAPPEEVERALEEARRELEEVLEEAKRKA
B24: traf2_out_19_16_1981 (protein)
chain: AREELERLRRELEEIERRVRELEAYFLANEDTLTREELSDLLVEVSELRRRAREIRERLEELAGVDPEEVERLRRRAEEVIERAQRLANRIVDRYEALLK
B25: traf2_out_5_189_2316 (protein)
chain: SMREEEQKKLNEKAKEIGKEVTDLINKMKAEGKSWEEIAKKMLEKMKKLDVETASLYSGIFYSIMMGEAIANNDEELKKIAEEFRKEAKKLIEEKEKKEA
B26: traf2_out_6_3_2519 (protein)
chain: MEESLREDARTVLKNMGITTAEQLLRLVKAEVNAVKKLVSRKDVDRADLAGAESVLALTRAMVEVAAEELPDLTEEQKAEMLELIEEAEKLVEEKRKELE
B27: traf2_out_17_162_1490 (protein)
chain: EELEERLRELERRLEELERRLKELEEKLKNIDKLSKEELTDLLVEASEAKREARRLAEELRELRERTGREELEELIRRAEEIAERLQRIANIIYKELEKK
B28: traf2_out_20_3_2089 (protein)
chain: EELKKELEKELEEAEKLIKEAIKIADEETAKKLKELKKKLKEAKELPLDEMLVELSEIRRELLELAEKAKKEGKEELAKILEEAADKVNKAMNLAYKIIE
B29: traf2_out_6_156_2424 (protein)
chain: MLEKIIKEAEEKIKKEIKKLAEASEEKKIKYISDIAGAVYKALQKMREAGASVEEIKEAIERLKKVAEKEAKKAGLDKDTRDLLLASINAVGEVALREAK

Molecular target: T1, TRAF2, Q12933
Test: median log2 fold change of GCK-ALFA target abundance (FLAG IP / Myc IP barcode read proportion) (log2 ratio); each designed protein is fused to an ALFA-tag nanobody in HEK293 cells to bring the named protein to FLAG-tagged glucokinase (GCK); Myc marks an untargeted standard; higher = target protein stabilised (more abundant)
Conditions: target protein: 3xFLAG-MCP-GCK-ALFA reporter; HEK293 landing pad (RPLP)
How it was run: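 HEK293 landing-pad cells received a recombined binder library fused to the ALFA nanobody and were induced with 2 μg mL^−1 doxycycline, then transfected with a plasmid encoding a FLAG-tagged target and a Myc-tagged standard. Lysates were collected after 48 h for anti-FLAG and anti-Myc immunoprecipitation, and the circular RNA barcodes were reverse transcribed, amplified and sequenced. Target abundance for each binder is the median log2 ratio of FLAG to Myc barcode read proportions. Barcodes had to reach a proportion of at least 10^−7 in both replicates, each binder needed at least 3 barcodes per replicate, a pseudocount of 10^−6 was applied, and the two replicates were pooled.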

Binder	median log2 fold change
B1	0.0628
B2	0.0613
B3	0.58
B4	0.0863
B5	-0.077
B6	0.306
B7	0.172
B8	0.0548
B9	-0.0574
B10	0.256
B11	-0.0131
B12	-0.0971
B13	-0.00113
B14	-0.222
B15	0.0801
B16	0.357
B17	0.0354
B18	0.0927
B19	0.307
B20	-0.299
B21	0.367
B22	0.202
B23	0.202
B24	0.142
B25	0.226
B26	-0.45
B27	-1.17
B28	0.29
B29	-0.0673

Source: the supplement of paper PMC12632987
